Laboratory results: PubChem BioAssay AID360 (National Center for Advancing Translational Sciences (NCATS), 2006)
The campaign covered roughly 48,000 compounds. About 550 (1.1%) were called active. Roughly 4% stayed inconclusive and do not appear here. Rule as the data show it: active = potency below about 15 µM; inconclusive = mostly about 16 µM to 33 µM; inactive = weaker than that. The list shows a part of the results.

molecular target: Lysosomal acid glucosylceramidase (Homo sapiens) (UniProt P04062); assay: Glucocerebrosidase; conditions: purified enzyme, resorufin glucoside fluorescence (screen aimed at inhibitors), 20 min;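 also: the screen sought inhibitors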
Chain of UniProt P04062 (P04062 whole entry, looked up): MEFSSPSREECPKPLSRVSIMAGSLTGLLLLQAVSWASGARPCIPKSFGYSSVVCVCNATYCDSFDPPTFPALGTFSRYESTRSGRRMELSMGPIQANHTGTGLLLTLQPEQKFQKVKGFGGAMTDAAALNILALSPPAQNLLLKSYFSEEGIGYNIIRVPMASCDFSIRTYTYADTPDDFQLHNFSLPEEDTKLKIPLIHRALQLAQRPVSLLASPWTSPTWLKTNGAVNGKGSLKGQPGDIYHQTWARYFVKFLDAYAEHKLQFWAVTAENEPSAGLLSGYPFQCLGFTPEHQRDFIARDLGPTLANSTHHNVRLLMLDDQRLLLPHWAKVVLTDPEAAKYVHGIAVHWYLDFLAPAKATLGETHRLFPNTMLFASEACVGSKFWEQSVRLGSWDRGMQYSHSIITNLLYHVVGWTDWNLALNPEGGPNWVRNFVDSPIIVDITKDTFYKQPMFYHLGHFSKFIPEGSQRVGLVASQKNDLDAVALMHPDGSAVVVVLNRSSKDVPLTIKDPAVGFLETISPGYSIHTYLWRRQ
How it was run: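 Compounds titrated against 0.2 nM normal enzyme, 30 uM resorufin beta-D-glucopyranoside substrate, citrate/phosphate buffer with taurocholate and tween-20, pH 5.9. Reaction ran 20 min at room temperature; fluorescence (Ex 548/Em 600) gave AC50.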
Potency is read from the fitted curve at half-maximal effect.

Potency, inactive:
Cc1cc(C)nc(N2CCC(C(=O)NCCc3ccc(F)cc3)CC2)n1 > 76.9 µM
COC(=O)COc1ccc(S(=O)(=O)N2CCN(c3ccccc3F)CC2)cc1 > 76.9 µM
COc1ccc(OC)c(C(=O)CSc2nnc(Cc3cccs3)n2C)c1 > 76.9 µM
CC1C(=O)C(C)C(c2ccc3c(c2)OCO3)NC1c1ccc2c(c1)OCO2 (stereo not given) > 76.9 µM
COc1ccc(-n2c(CNC(=O)c3cc(OC)c(OC)c(OC)c3)n[nH]c2=S)cc1 > 76.9 µM
Cc1ccccc1N1C(=O)CC(N(O)c2ccccc2)C1=O (stereo not given) > 76.9 µM
CCCOc1ccc(N)cc1N > 76.9 µM
O=c1ccc(S(=O)(=O)N2CCC(Cc3ccccc3)CC2)c[nH]1 > 76.9 µM
Cc1ccc(S(=O)(=O)Cn2nnnc2C(C(C)C)N2CCc3ccccc3C2)cc1 (stereo not given) > 76.9 µM
CCOC(=O)Cc1c(C)nc2cc(-c3ccc(Cl)cc3)[nH]n2c1=O > 76.9 µM
COc1cccc2cc(C(=O)C3=C(O)C(=O)N(CCN(C)C)C3c3ccc(F)cc3)oc12 (stereo not given) > 76.9 µM
O=S(=O)(c1cccs1)N1CCc2ccccc2C1 > 76.9 µM
O=C(Nc1ccc2c(c1)OCO2)N1CCN(C/C=C/c2ccccc2)CC1 > 76.9 µM
Cc1ccc(C)c(NS(=O)(=O)c2ccc(OCC(=O)NCc3ccco3)cc2)c1 > 76.9 µM
COc1ccc(Cn2nnnc2C(c2ccccc2OC)N2CCC(C(N)=O)CC2)cc1 (stereo not given) > 76.9 µM
CC(=O)Nc1cccc(NC(=O)C2CCCN2C(=O)Nc2ccccc2C)c1 (stereo not given) > 76.9 µM
c1ccc(C2=Nn3c(nnc3-c3ccncc3)SC2)cc1 > 76.9 µM
N#CC1C(=O)NC(N2CCN(c3ccccc3)CC2)=NC12CCCCC2 (stereo not given) > 76.9 µM
CCc1noc(C)c1C(=O)N1CCCC1 > 76.9 µM
O=C(CSc1nc2cc(Cl)ccc2o1)N1CCOCC1 > 76.9 µM
Cc1ccc(CN2C3=NCCCN3c3ccccc32)cc1 > 76.9 µM
N#Cc1c(N)sc2c1CCCCCC2 > 76.9 µM
Cc1cccc(-n2c(SCC(=O)Nc3ccc4c(c3)OCO4)nnc2-c2ccoc2C)c1 > 76.9 µM
Cc1c(C(=O)OCC(=O)c2c(N)n(CC(C)C)c(=O)n(C)c2=O)oc2ccccc12 > 76.9 µM
COc1cccc(-c2cc(C(=O)N3C(C)CCCC3C)no2)c1 (stereo not given) > 76.9 µM
CC(C)(C)NC(=O)CSc1nncn1-c1ccccc1 > 76.9 µM
CC1CCN(Cc2nc3c(c(=O)n(C)c(=O)n3C)n2CCN2CCOCC2)CC1 > 76.9 µM
COc1ccc(OC)c(S(=O)(=O)N2Cc3ccccc3CC2C(=O)O)c1 (stereo not given) > 76.9 µM
CCOC(=O)c1cccc(NC(=O)C(C)N2C(=O)c3ccccc3C2=O)c1 (stereo not given) > 76.9 µM
COc1ccc(C2(O)CCN(CCCCOc3ccccc3)CC2)cc1 > 76.9 µM
O=C(NCc1ccco1)C1CCN(S(=O)(=O)N2CCOCC2)CC1 > 76.9 µM
CC(C)c1cc(C(=O)N2CCN(C(c3ccccc3)c3ccccc3)CC2)no1 > 76.9 µM
COc1ccccc1OCc1nc2c3c(-c4ccccc4)c(-c4ccccc4)oc3ncn2n1 > 76.9 µM
N#CC1=C(O)C(c2ccccc2)n2c1nc(=O)c1ccccc12 (stereo not given) > 76.9 µM
COc1ccc(Cc2nn3c(Cn4nnc5ccccc54)nnc3s2)cc1 > 76.9 µM
Cc1ccc(OCc2nnc(SCC(=O)Nc3ccc4c(c3)OCCO4)n2Cc2ccco2)cc1
COc1ccccc1Nc1nc(N)nc(CSc2nccc(C)n2)n1 > 76.9 µM
CCCCNC(=O)Nc1cc(C(F)(F)F)c[nH]c1=O > 76.9 µM
COc1cc(NS(=O)(=O)c2ccc(NC(=O)NC3CCCCC3)cc2)nc(OC)n1 > 76.9 µM
CC12CC(c3ccccc3O1)N(C(=O)c1ccco1)C(=O)N2c1ccccc1 (stereo not given) > 76.9 µM
COc1cccc(C(=O)NCc2n[nH]c(=S)n2-c2cccc(C)c2)c1 > 76.9 µM
Cn1c(SCC(=O)OCC(=O)c2ccccc2)nnc1-c1cccs1 > 76.9 µM
c1coc(Cn2c(-c3ccco3)nc3ccccc32)c1 > 76.9 µM
CCOC(=O)c1[nH]c(CSc2nnc(-c3ccc(OC)cc3)o2)c(C(=O)OCC)c1C > 76.9 µM
CCCOc1ccc(C2(C(=O)O)CCCC2)cc1 > 76.9 µM
CCn1c(SCC(=O)Nc2cc(C)c(Cl)cc2OC)nnc1-c1ccco1 > 76.9 µM
O=C(NCc1ccco1)c1cccc(F)c1 > 76.9 µM
O=C(O)c1cc(NCc2c(F)cccc2Cl)ccc1N1CCOCC1 > 76.9 µM
O=C(CSC1=NCCS1)Nc1ccc(S(=O)(=O)N2CCCCCC2)cc1 > 76.9 µM
Cc1cc(C)c(NC(=O)CN2C(=O)NC3(CCCCC3)C2=O)c(C)c1 > 76.9 µM
Cc1ccc(Cn2nnc(C(=O)Nc3cc(C)ccc3C)c2N)cc1 > 76.9 µM
Cc1cc(=O)[nH]c(N2CCN(C(c3ccccc3)c3ccccc3)CC2)n1 > 76.9 µM
CC1CCN(S(=O)(=O)c2ccc(NC(=O)Cn3nnc(-c4ccccc4)n3)cc2)CC1 > 76.9 µM
COc1ccc(/C(O)=C(\C#N)c2nc3ccccc3n2C)cc1OC > 76.9 µM
Cc1cc(C(=O)CSc2nnnn2C)c(C)n1-c1cccc(F)c1 > 76.9 µM
CCOC(=O)c1cnc(-n2nc(C)cc2C)nc1Nc1cccc(C(C)=O)c1 > 15.4 µM
COc1ccccc1NC(=O)N1CCCC1C(=O)Nc1ccc2c(c1)OCO2 (stereo not given) > 76.9 µM
COCCn1nnnc1C(C(C)C)N1CCC(Cc2ccccc2)CC1 (stereo not given) > 76.9 µM
CC1(C)CC(=O)c2c(-c3cccnc3)n[nH]c2C1 > 76.9 µM
CC1=CCC2C(=O)N(c3nc4ccccc4n3C)C(=O)C2C1 (stereo not given) > 76.9 µM
CCCC(c1nnnn1CCC(C)C)N1CCC(C(N)=O)CC1 (stereo not given) > 76.9 µM
COc1ccc(C2c3c(oc4ccccc4c3=O)C(=O)N2CC2CCCO2)cc1 (stereo not given) > 76.9 µM
CCOc1c(Br)cc(C(N)=O)cc1OC > 76.9 µM
Cn1c(COc2ccccc2)nnc1SCCSc1nnc(COc2ccccc2)n1C > 76.9 µM
O=C(OC(C(=O)NCc1cccs1)c1ccc(F)cc1)c1ccco1 (stereo not given) > 76.9 µM
CCN1CCCC1CNC(=O)c1cc2c(C)nc3ccccc3c2o1 (stereo not given) > 76.9 µM
COc1cc(C(=O)NC2CC3CCCC(C2)N3CC(=O)Nc2ccccc2)cc(OC)c1OC (stereo not given) > 76.9 µM
O=C(Nc1ccccc1N1CCOCC1)c1ccc(Br)o1 > 76.9 µM
CCN(CC)CCOC(=O)C1(c2ccccc2)CCOCC1 > 76.9 µM
O=C(CSc1nnc(-c2ccco2)n1-c1ccccc1)N1CCN(C(=O)c2ccco2)CC1 > 76.9 µM
CCOC(=O)C1C(c2ccccc2Cl)NC(=O)N(C)C1(O)C(F)(F)F (stereo not given) > 76.9 µM
Cc1cc(NC(=O)CSc2nc(C3CC3)nc3sc4c(c23)CCC(C)C4)no1 (stereo not given) > 76.9 µM
Cc1ccc(OCc2nnc(SCC(=O)N3CCOCC3)n2C)cc1 > 76.9 µM
O=c1cc(-c2cccc3ccccc23)[nH][nH]1 > 76.9 µM
CCCCc1cc(=O)oc2cc(C)cc(OC(C)C(=O)O)c12 (stereo not given) > 76.9 µM
COCCn1c(=S)[nH]c2cc(C(=O)N3CCN(Cc4ccc5c(c4)OCO5)CC3)ccc2c1=O > 76.9 µM
COc1cc(CC(=O)Oc2ccc3c(c2)OCO3)cc(OC)c1OC > 76.9 µM
COc1ccc(N=C2C(=O)Nc3ccccc32)cc1 > 76.9 µM
CC(C)c1nnc(NC(=O)CCC(=O)NCc2ccco2)s1 > 76.9 µM
CCN1CCCC1CNC(=O)c1ccc(CS(=O)(=O)c2ccccc2C)o1 (stereo not given) > 76.9 µM
C=CCn1c(SCC(=O)Nc2ccc(C(=O)OC(C)C)cc2)nnc1-c1cccs1 > 76.9 µM
CC(=O)Cc1ccccc1OC(=O)c1ccco1 > 76.9 µM
COc1ccc(-c2noc(CSc3nc(N)c(-c4ccccc4)c(=O)[nH]3)n2)cc1 > 76.9 µM
O=C(CN1CCOCC1)Nc1cccc(Cl)c1Cl > 76.9 µM
Nc1nc(-c2ccccc2)cc(N2CCCCC2)n1 > 76.9 µM
C(=C\c1ccccc1)/CSc1nnc(-c2ccccn2)n1Cc1ccco1 > 76.9 µM
CCc1c(C)nc(N)n2c(SCC(=O)N3CCN(c4ccccc4)CC3)nnc12 > 76.9 µM
CCOC(=O)C(NC(C)=O)(N1CCOCC1)C(F)(F)F (stereo not given) > 76.9 µM
CCOC(=O)c1sc(NS(=O)(=O)c2ccc(NC(C)=O)cc2)nc1C > 76.9 µM
CN(CC(=O)NCC1CCCO1)S(=O)(=O)c1cc(Cl)ccc1Cl (stereo not given) > 76.9 µM
